system: Colletotrichum orbiculare; details: 250 ppm, sprayed 2.5 ml/pot before inoculation; evaluated 6-10 days after inoculation

Structure (SMILES) | Test H (control value class, anthracnose on cucumber)
CCn1c(-c2c(F)cc(F)cc2F)c(-c2cc(F)cc(F)c2Cl)cc(Cl)c1=O [Compound 585] | H (H shows more than 50% of control values)
CCn1c(-c2c(F)cc(F)cc2F)c(-c2ccc(F)cc2Cl)cc(C)c1=O [Compound 594] | H (H shows more than 50% of control values)
CCn1c(-c2c(F)cc(OC)cc2F)c(-c2cc(F)cc(F)c2Cl)cc(C)c1=O [Compound 714] | H (H shows more than 50% of control values)
Cn1c(-c2c(F)cccc2F)c(-c2ccc(F)cc2F)cc(Cl)c1=O [Compound 646] | H (H shows more than 50% of control values)
CCn1c(-c2c(F)cc(F)cc2F)c(-c2cccc(F)c2F)cc(Br)c1=O [Compound 567] | H (H shows more than 50% of control values)
COc1cc(F)c(-c2c(-c3cc(F)cc(F)c3Cl)cc(Br)c(=O)n2C)c(F)c1 [Compound 717] | H (H shows more than 50% of control values)
CCn1c(-c2c(F)cccc2F)c(-c2cc(F)cc(F)c2F)ccc1=O [Compound 729] | H (H shows more than 50% of control values)
CCn1c(-c2c(F)cc(OC)cc2F)c(-c2cc(F)cc(F)c2Cl)ccc1=O [Compound 693] | H (H shows more than 50% of control values)
COc1cc(F)c(-c2c(-c3cccc(OC)c3Cl)cc(C)c(=O)n2C)c(F)c1 [Compound 672] | H (H shows more than 50% of control values)
CCn1c(-c2c(F)cc(F)cc2F)c(-c2cc(F)ccc2Cl)ccc1=O [Compound 738] | H (H shows more than 50% of control values)
CCOc1cc(F)c(-c2c(-c3cccc(OC)c3Cl)cc(C)c(=O)n2CC)c(F)c1 [Compound 645] | H (H shows more than 50% of control values)
O=c1c(Cl)cc(-c2cc(F)cc(F)c2Cl)c(-c2c(F)cc(F)cc2F)n1CC(F)F [Compound 608] | H (H shows more than 50% of control values)

same assay, conditions: in vivo

Structure (SMILES) | Test H (control value class) | Test H control value
O=c1c(Cl)cc(-c2c(F)c(F)c(F)c(F)c2F)c(-c2c(F)cccc2F)n1CC(F)F [Compound 384] | L (key: H shows more than 50% of control values; L shows 50% or less of control values) | –
CCCn1c(-c2c(F)cccc2F)c(-c2cc(OC)ccc2Cl)ccc1=O [Compound 399] | H (key: H shows more than 50% of control values; L shows 50% or less of control values) | –
CCn1c(-c2c(F)cccc2F)c(-c2cccc(Cl)c2)cc(Cl)c1=O [Compound 178] | – | L (key: H shows more than 50% of control values; L shows 50% or less of control values)
CCn1c(-c2c(F)cc(OC)cc2F)c(-c2cc(F)ccc2F)ccc1=O [Compound 468] | H (key: H shows more than 50% of control values; L shows 50% or less of control values) | –
Cn1c(-c2c(F)cc(F)cc2F)c(-c2cc(F)cc(F)c2)ccc1=O [Compound 800] | H (key: H shows more than 50% of control values; L shows 50% or less of control values) | –
Cn1c(-c2c(F)cc(F)cc2F)c(-c2ccccc2Cl)cc(Cl)c1=O [Compound 432] | H (key: H shows more than 50% of control values; L shows 50% or less of control values) | –
CCn1c(-c2c(F)cccc2F)c(-c2cc(OCC#N)ccc2Cl)cc(C)c1=O [Compound 801] | H (key: H shows more than 50% of control values; L shows 50% or less of control values) | –
Cn1c(-c2c(F)cc(F)cc2F)c(-c2cc(F)cc(F)c2F)cc(Cl)c1=O [Compound 467] | H (key: H shows more than 50% of control values; L shows 50% or less of control values) | –
COc1ccc(Cl)c(-c2cc(Cl)c(=O)n(C(C)C)c2-c2c(F)cccc2F)c1 [Compound 413] | H (key: H shows more than 50% of control values; L shows 50% or less of control values) | –
CN1C(=O)CCC(c2cc(F)cc(F)c2F)=C1c1c(F)cccc1F [Compound 437] | H (key: H shows more than 50% of control values; L shows 50% or less of control values) | –
Cn1c(-c2c(F)cccc2F)c(-c2cc(Cl)cc(Cl)c2Cl)ccc1=O [Compound 452] | H (key: H shows more than 50% of control values; L shows 50% or less of control values) | –
Cc1cc(-c2cc(Cl)ccc2Cl)c(-c2c(F)cccc2F)n(C)c1=O [Compound 471] | H (key: H shows more than 50% of control values; L shows 50% or less of control values) | –
CCn1c(-c2c(F)cc(F)cc2F)c(-c2cc(F)cc(F)c2Br)cc(Br)c1=O [Compound 814] | H (key: H shows more than 50% of control values; L shows 50% or less of control values) | –
O=C1CCC(c2cc(F)ccc2Cl)=C(c2c(F)cccc2F)N1CC(F)F [Compound 388] | H (key: H shows more than 50% of control values; L shows 50% or less of control values) | –
CCn1c(-c2c(F)cc(F)cc2F)c(-c2ccc(OC)cc2Cl)cc(C)c1=O [Compound 750] | H (key: H shows more than 50% of control values; L shows 50% or less of control values) | –
COc1cc(F)c(-c2c(-c3cc(F)ccc3Cl)cc(Cl)c(=O)n2C)c(F)c1 [Compound 761] | H (key: H shows more than 50% of control values; L shows 50% or less of control values) | –
CCOc1ccc(Cl)c(-c2cc(Cl)c(=O)n(CC)c2-c2c(F)cccc2F)c1 [Compound 376] | H (key: H shows more than 50% of control values; L shows 50% or less of control values) | –
O=c1c(Cl)cc(-c2cc(Cl)ccc2Cl)c(-c2c(F)cccc2F)n1CC(F)F [Compound 449] | H (key: H shows more than 50% of control values; L shows 50% or less of control values) | –
Cc1ccccc1-c1cc(Cl)c(=O)n(C)c1-c1c(F)cccc1F [Compound 181] | – | L (key: H shows more than 50% of control values; L shows 50% or less of control values)
CCn1c(-c2c(F)cc(OC)cc2F)c(-c2ccc(OC)cc2Cl)ccc1=O [Compound 755] | H (key: H shows more than 50% of control values; L shows 50% or less of control values) | –
CCn1c(-c2c(F)cccc2F)c(-c2ccccc2C)ccc1=O [Compound 160] | – | H (key: H shows more than 50% of control values; L shows 50% or less of control values)
COc1cc(F)c(-c2c(-c3ccccc3Cl)ccc(=O)n2C)c(F)c1 [Compound 433] | H (key: H shows more than 50% of control values; L shows 50% or less of control values) | –
COc1ccc(Cl)c(-c2ccc(=O)n(CC#N)c2-c2c(F)cccc2F)c1 [Compound 460] | L (key: H shows more than 50% of control values; L shows 50% or less of control values) | –
COc1cc(OC)c(Cl)c(-c2ccc(=O)n(C)c2-c2c(F)cccc2Cl)c1 [Compound 166] | – | H (key: H shows more than 50% of control values; L shows 50% or less of control values)
CCn1c(-c2c(F)cc(OC)cc2F)c(-c2cccc(F)c2Cl)ccc1=O [Compound 489] | H (key: H shows more than 50% of control values; L shows 50% or less of control values) | –
O=c1c(Br)cc(-c2cc(F)ccc2Cl)c(-c2c(F)cccc2F)n1CC(F)F [Compound 393] | H (key: H shows more than 50% of control values; L shows 50% or less of control values) | –

From US10299477B2 (priority 2015, dated 2019)
